Laboratory results as given in article PMC4336329 (PLoS ONE, 2015).
The campaign covered roughly 310,000 compounds. About 2,200 (0.71%) showed an effect of 50% or more. The effect is printed as a negative number. Some of the results follow.

target: human ether-à-go-go-related gene (hERG) potassium channel (human, UniProt Q12809); test: primary screen, population patch clamp on CHO cells stably expressing hERG
Sequence (Q12809 whole entry, looked up): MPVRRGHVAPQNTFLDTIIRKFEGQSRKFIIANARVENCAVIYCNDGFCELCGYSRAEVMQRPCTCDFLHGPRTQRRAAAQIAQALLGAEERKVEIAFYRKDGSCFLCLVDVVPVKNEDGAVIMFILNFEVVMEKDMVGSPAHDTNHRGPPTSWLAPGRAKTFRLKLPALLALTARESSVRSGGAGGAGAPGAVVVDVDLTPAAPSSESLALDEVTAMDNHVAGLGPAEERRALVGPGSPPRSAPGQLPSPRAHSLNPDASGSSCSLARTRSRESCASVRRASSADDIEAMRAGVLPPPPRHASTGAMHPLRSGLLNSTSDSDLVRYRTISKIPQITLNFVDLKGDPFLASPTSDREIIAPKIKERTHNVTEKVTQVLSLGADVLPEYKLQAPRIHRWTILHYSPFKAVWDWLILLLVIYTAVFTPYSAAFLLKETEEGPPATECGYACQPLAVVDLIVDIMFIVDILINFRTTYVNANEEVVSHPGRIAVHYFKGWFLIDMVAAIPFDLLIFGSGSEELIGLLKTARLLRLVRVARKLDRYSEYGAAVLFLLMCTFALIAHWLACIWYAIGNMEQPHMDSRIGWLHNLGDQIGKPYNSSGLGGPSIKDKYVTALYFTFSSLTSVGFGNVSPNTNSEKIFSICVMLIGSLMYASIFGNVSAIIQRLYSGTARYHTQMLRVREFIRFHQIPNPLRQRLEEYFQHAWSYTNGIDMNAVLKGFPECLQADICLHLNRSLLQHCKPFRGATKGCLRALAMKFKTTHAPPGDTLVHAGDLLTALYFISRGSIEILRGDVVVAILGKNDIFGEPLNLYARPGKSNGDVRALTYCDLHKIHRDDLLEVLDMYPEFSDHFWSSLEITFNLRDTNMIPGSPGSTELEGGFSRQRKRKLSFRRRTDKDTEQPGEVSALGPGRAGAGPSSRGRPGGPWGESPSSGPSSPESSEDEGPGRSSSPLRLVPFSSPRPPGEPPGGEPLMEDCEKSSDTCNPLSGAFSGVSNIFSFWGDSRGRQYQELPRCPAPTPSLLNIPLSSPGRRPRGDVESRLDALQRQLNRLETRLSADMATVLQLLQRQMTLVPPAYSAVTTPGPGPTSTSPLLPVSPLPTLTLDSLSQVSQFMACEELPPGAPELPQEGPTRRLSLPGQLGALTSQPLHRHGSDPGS

Row | Compound | hERG current change (%, negative = inhibition) at 1uM [%]
1 | COc1ccccc1OCCCOc1ccc(/C=C2\SC(=O)NC2=O)cc1OC | 20.1
2 | COC(=O)c1sccc1NC(=S)N1CCN(c2ccccc2F)CC1 | 23.5
3 | Cc1csc(NC(=O)c2nc3nccc(C)n3n2)n1 | 10.4
4 | CC1=C(C)C(c2ccccc2)NC(=S)N1 (stereo not shown) | 10.7
5 | CCOC(CNC(=O)c1ccc(CNC(=O)c2ccc(OC)c(OC)c2)cc1)OCC | 8.72
6 | O=C(CCC(=O)Nc1ccc(Br)cc1)N/N=C/c1cc([N+](=O)[O-])ccc1O | 15
7 | O=C(COC(=O)c1c(F)cccc1F)NCc1ccc2c(c1)OCO2 | 6.34
8 | CS(=O)(=O)N1CCN(C(=O)C2c3ccccc3Oc3ccccc32)CC1 | -4.04
9 | O=C(CSc1cccc[n+]1[O-])Nc1ccc2c(c1)OCO2 | 8.95
10 | COc1ccc(C(C)=O)cc1CC(=O)NCCCn1ccnc1 | 15.7
11 | Cc1cccc(Oc2ccc(NC(=O)c3ccccc3C(=O)O)cc2)c1C | 13.7
12 | COc1cc(OC)cc(C(=O)Nc2ccc(N3CCOCC3)cc2N2CCOCC2)c1 | -7.15
13 | Cc1cc(NCc2ccncc2)ccc1Br.O=C(O)C(=O)O | 12.6
14 | O=C(CN1CCN(C(=O)c2ccccc2F)CC1)Nc1ccc(Br)cc1 | -56.5
15 | C#CC1CN(Cc2ccccc2)CC(C#C)N1C.Cl (stereo not shown) | 15.1
16 | O=C(Nc1cccnc1)c1ccc(NS(=O)(=O)c2cccc([N+](=O)[O-])c2)cc1 | 13.9
17 | CN(C)c1nc(C(=O)NN)nc(N(C)C)n1 | -0.549
18 | COc1ccccc1CNC(=O)c1ccccc1NC(=O)C1=C(C)OCCS1 | 10.7
19 | COc1ccccc1CN1CC(C(=O)N2CCCCO2)CCC1=O (stereo not shown) | -36.3
20 | Cc1ccc(/C=C/C(=O)O)cc1S(=O)(=O)NCc1ccco1 | 7.73
21 | CC(C)(C)NC(=O)Cn1nnc(-c2ccccc2Cl)n1 | 12.4
22 | Cc1cccc(NC(=O)CN2CCN(C(=O)COc3cccc(Br)c3)CC2)c1C | -29.9

Row | Compound | hERG current change (%, negative = inhibition) at 1uM [%]
23 | COc1ccc(NC(=O)CC2(CC(=O)O)CCCC2)cn1 | 18.1
24 | COc1ccccc1[C@@H]1C(c2cccc(Cl)c2)=NN(c2ccc(Br)cc2)[C@H]1C(=O)N1CCOC1=O | 16.5
25 | CC(=O)c1cccc(S(=O)(=O)N2CCn3cccc3C2C)c1 (stereo not shown) | 8.58
26 | O=C(CSc1cccs1)Nc1cccc2ccccc12 | 5.51
27 | COCC(=O)N(c1ccccc1)C(C)C(=O)OC (stereo not shown) | 5.83
28 | CC1(C)NC(=O)N(CC(O)COc2cc3ccccc3cc2C(=O)N2CCCCC2)C1=O (stereo not shown) | 5.5
29 | COC(=O)c1ccc(CO/N=C/c2ccccc2OC)cc1 | 13.6
30 | CC1CCCC(NC(=S)Nc2cccc(S(=O)(=O)N(C)C)c2)C1C (stereo not shown) | 20.1
31 | Cc1c(Cl)cccc1NC(=S)N1CCC(C(N)=O)(N2CCCCC2)CC1 | -1.12
32 | CN(C1CCS(=O)(=O)C1)S(=O)(=O)c1ccc(N2CCCC2=O)cc1 (stereo not shown) | 10.8
33 | Cc1ccc2nc(Nc3nc(CSc4nnnn4-c4ccccc4)cc(=O)[nH]3)nc(C)c2c1 | 15.2
34 | COc1ccc(/C=C/c2nnc(NC(=O)C(C)(C)C)s2)cc1 | -2.85
35 | COc1ccc(Cc2nnnn2CC(=O)O)cc1 | 4.76
36 | O=C(NCCCN1CCN(c2ccccc2F)CC1)C1CCC(=O)N1C1CCCCC1 (stereo not shown) | 1.21
37 | CCC(=O)OCC(=O)Nc1ccc2c(c1)OCO2 | 4.12
38 | Clc1ccccc1-c1nn2c(Cn3cnc4ccccc43)nnc2s1 | 4.73
39 | O=C(/C=C/C=C/c1ccc2c(c1)OCO2)N1CCCCC1 | 9.12
40 | COc1ccccc1CNC(=O)COc1ccc(S(=O)(=O)N2CCOCC2)cc1C | 9.66
41 | Cl.O=C(CCN1CCN(c2ccccc2F)CC1)c1ccc(Br)cc1 | -40
42 | COc1ccc(CC(=O)OCC(=O)c2c[nH]c3ccccc23)cc1 | -6.52
43 | O=C(CN1C(=O)NC2(CCCC2)C1=O)Nc1ccccc1C(F)(F)F | 11.6
44 | CCOCCCn1c(=NC(=O)c2ccc(OC)c(OC)c2)c(C#N)cc2c(=O)n3cccc(C)c3nc21 | -11

Row | Compound | hERG current change (%, negative = inhibition) at 1uM [%]
45 | O=C(NC1CC1)c1ccc(-c2ccccc2)cc1 | 4.86
46 | CC1CC(C)CN(S(=O)(=O)c2ccc(NC(=O)CN3C(=O)NC(C)(c4ccccc4)C3=O)cc2)C1 (stereo not shown) | 10.9
47 | COc1ccc(N2CC(NC(=O)N3CCN(c4ccccc4)CC3)CC2=O)cc1 (stereo not shown) | 5.4
48 | CCOC(=O)c1c(NC(=O)C2CCCO2)sc2c1CCC2 (stereo not shown) | 7.12
49 | O=C(O)c1ccccc1-c1ccccc1C(=O)NCc1ccccc1Cl | -18
50 | COc1cc(NC(=O)CSc2nc(C)cs2)cc(OC)c1 | 8.25
51 | COc1ccc(-c2cc(=O)c3c(OC)c(OC)c(OC)c(OC)c3o2)cc1OC | 5.03
52 | COc1ccc(S(=O)(=O)Nc2cc(Cl)ccc2-n2cncn2)cc1 | 4.87
53 | CC(=O)c1ccc(NC(=O)C(C)N(C)CC(=O)Nc2ccccc2Cl)cc1 (stereo not shown) | 14.4
54 | CCOC(=O)CN1C(=O)N[C@@H](c2cccc(C(F)(F)F)c2)[C@@H](C(=O)OC)[C@H]1C | 12.7
55 | O=C(NNC(=O)c1cccnc1)Nc1ccc(Cl)c(Cl)c1 | 8.22
56 | COc1ccc(S(=O)(=O)Nc2ccc(NC(C)=O)cc2)cc1 | 5.1
57 | Cc1nn(-c2ccccc2)c(N2CCCC2)c1/C=N/NC(=O)c1cccc(S(=O)(=O)Nc2ccc(Cl)cc2)c1 | 7.06
58 | O=C(NCCc1csc(-c2ccccc2)n1)c1ccco1 | -6.56
59 | N#Cc1ccccc1Cn1c(=O)n(-c2ccc(CC(=O)NCc3ccco3)cc2)c(=O)c2sccc21 | 11.5
60 | CCC(CC)NC(=O)COn1nnc2ccc(S(=O)(=O)N3CCOCC3)cc21 | 3.22
61 | O=C(CSc1nc2ccccc2c(=O)n1Cc1ccco1)N1CCCCCC1 | -82.8
62 | CSc1nc(-c2ccc(Cl)cc2)nn1S(=O)(=O)c1ccc(Cl)cc1 | 6.6
63 | Cn1c(N)c(C#N)c2c(c1=S)CSC(C)(C)C2 | 8.04
64 | N#CCCn1cc(C(=O)NCc2ccccc2)c(-c2ccccc2)n1 | 11.3
65 | Cc1ccc(Cn2nc(C)c(NC(=O)CSc3nc4c(c(C(F)(F)F)n3)CCc3ccccc3-4)c2C)cc1 | 18.5
66 | COCCn1c(SCC(=O)N2CCC(C)CC2)nc2c([nH]c3ccccc32)c1=O | -0.593

Row | Compound | hERG current change (%, negative = inhibition) at 1uM [%]
67 | O=[N+]([O-])c1cc(-c2nnc(-c3ccccc3)o2)ccc1Oc1ccc(Cl)cc1 | 3.19
68 | COc1ccc(NC(=O)CCN2CCN(S(=O)(=O)c3ccc(OC)cc3)CC2)cc1 | -5.88
69 | Cn1c(=O)c2nc(-c3ccc(Cl)cc3Cl)oc2c2ccccc21 | 18.6
70 | Cc1cccc(C(=O)O/N=C2\CCCc3ccccc32)c1 | 10.1
71 | Cc1cccc(-n2c(-c3ccoc3C)n[nH]c2=S)c1 | 10.6
72 | CCOC(=O)N1CCN(c2c(N3CCN(c4cc(C)ccc4C)CC3)c(=O)c2=O)CC1 | 9.9
73 | CCOc1ccc2nc(SCC(=O)NCc3ccc(OC)c(OC)c3)[nH]c2c1 | 6.33
74 | COc1cccc(C(=O)NCCS(=O)(=O)N(C)C2CCCCC2)c1 | 1.27
75 | O=c1c2ccccc2nc(/C=C/c2ccccc2)n1-c1ccccc1O | 16.2
76 | Cc1ccc(SCCNC(=O)c2ccc([N+](=O)[O-])c(C)c2)cc1 | 13
77 | O=C(CN1C(=O)CCSc2ccccc21)Nc1ccccc1 | -15.6
78 | COC(=O)c1[nH]c2cccc(OC)c2c1NC(=O)CN1CC(C)OC(C)C1 (stereo not shown) | 8.31
79 | COc1ccc(NS(=O)(=O)c2ccc(C(=O)OC(C)C(=O)N3CCOCC3)cc2)cc1 (stereo not shown) | -31.7
80 | CC1CN(c2nc(N(C)c3ccccc3)nc(N)c2[N+](=O)[O-])CC(C)O1 (stereo not shown) | 10.7
81 | Cc1ccc(C)c(CS(=O)(=O)c2cn(CC(=O)N3CCC(C)CC3)c3ccccc23)c1 | -1.46
82 | O=c1[nH]c(CSc2cccc[n+]2[O-])nc2ccccc12 | 2.76
83 | COc1cc(OC)cc(-c2nc3ccccc3s2)c1 | -7.24
84 | CCNc1nc(SCCOc2ccc(Br)cc2)nc(N(C)C)n1 | 10.2
85 | Cn1c(O)c(N=Nc2ccccc2[N+](=O)[O-])c2ccccc21 | 12.9
86 | Cc1cc(Cl)nc(-c2ccccc2)n1 | 12.2
87 | O=c1c2cc(-c3ccccc3)sc2nc2n1N=C(c1ccccc1)CS2 | 20.5
88 | CCCCc1nnc(NC(=O)c2oc3ccc(OC)cc3c2C)s1 | 3.44
